Assay results: US20070004766A1, “Methods for relaxation of smooth muscle contractions using Trospium” (priority 2005, published 2007)
Counter-ions that a name gives are not always drawn. Like-named read-outs stand apart in the source and are kept apart here.

How the values were obtained:
[1] = tested on: cardiac muscle strips (atrial tissues); conditions: for contractility (force of cardiac muscle contractions) as percent of pre-drug contractile force: paced 120 beats per minute, mean and SEM, N = 9; for impairment of cardiac contractility (in words): 0.01 to 0.3 mmol/L, rat atrial strips
[2] = biological target: T1, human recombinant muscarinic receptor M-4 (Homo sapiens, UniProt P08173); assay: biochemical
T1 sequence (P08173 1-479): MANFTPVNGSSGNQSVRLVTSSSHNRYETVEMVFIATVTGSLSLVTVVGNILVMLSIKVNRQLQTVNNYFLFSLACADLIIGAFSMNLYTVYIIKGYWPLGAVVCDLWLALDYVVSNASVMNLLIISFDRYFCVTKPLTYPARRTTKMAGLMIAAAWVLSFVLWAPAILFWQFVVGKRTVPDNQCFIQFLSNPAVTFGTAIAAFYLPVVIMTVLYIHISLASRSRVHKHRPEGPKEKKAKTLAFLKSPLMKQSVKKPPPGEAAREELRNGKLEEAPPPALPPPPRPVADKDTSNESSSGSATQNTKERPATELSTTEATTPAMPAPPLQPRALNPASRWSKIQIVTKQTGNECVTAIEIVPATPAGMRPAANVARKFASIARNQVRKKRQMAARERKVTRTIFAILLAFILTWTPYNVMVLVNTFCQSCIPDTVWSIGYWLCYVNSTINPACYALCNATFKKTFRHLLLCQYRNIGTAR

Row | Compound | contractility (force of cardiac muscle contractions) as percent of pre-drug contractile force ([1]; 0.01 mmol/L) | contractility (force of cardiac muscle contractions) as percent of pre-drug contractile force ([1]; 0.05 mmol/L) | contractility (force of cardiac muscle contractions) as percent of pre-drug contractile force ([1]; 0.1 mmol/L) | contractility (force of cardiac muscle contractions) as percent of pre-drug contractile force ([1]; 0.3 mmol/L) | impairment of cardiac contractility (in words) ([1]; hydrochloride) | impairment of cardiac contractility (in words) [1] | unwanted side effects on cardiac contractility (in words) ([1]; concentrations as high as 0.3 mmol/L) | Ki [2]
1 | CCN(CC)CC#CCOC(=O)C(O)(c1ccccc1)C1CCCCC1 (stereo not drawn) [Oxybutynin, oxybutynin hydrochloride] | 83 ± 5% | 52 ± 7% | 27 ± 5% | 19 ± 5% | severely impaired |  |  | 
2 | O=C(OC1CC2CCC(C1)[N+]21CCCC1)C(O)(c1ccccc1)c1ccccc1.[Cl-] (stereo not drawn) [Trospium, 3α-hydroxy-spiro[1αH,5αH-nortropane-8,1′-pyrrolidinium]chloride benzilate] | 96 ± 3% | 92 ± 5% | 81 ± 7% | 74 ± 8% |  | no significant impairment | did not have unwanted side effects on cardiac contractility | 1 nM
